# Results as given in the RNAGym collection of RNA variant scans (doi:10.1073/pnas.2313332121).
# This sample is rich in variants without activity.
# B1: TPR 5TU (parent)
# chain: GGAUCUUCUCGAUCUAACAAAAAAGACAAAUCUGCCACAAAGCUUGAGAGCAUCUUCGGAUGCAGAGGCGGCAGCCUUCGGUGGCGCGAUAGCGCCAACGUUCUCAACUAUGACACGCAAAACGCGUGCUCCGUUGAAUGGAGUUUAUCAUG
# Variants of: B1
# Assay: polymerase ribozyme fitness, log enrichment relative to wild type (log ratio); higher = more active; in vitro selection for triplet polymerase activity
# Method in brief: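 To select mutant libraries of each subunit of a heterodimeric triplet polymerase ribozyme, built by PCR and transcribed, each was annealed with a biotinylated primer, partner subunit and triplets, then incubated frozen at −7 °C. Extended constructs were gel-excised, captured on streptavidin beads and amplified by RT-PCR, in one round carried out in triplicate. Illumina sequencing of input and output libraries kept genotypes with ≥10 input reads and ≥1 read per output. Fitness is the base-2 logarithm of genotype enrichment relative to wild-type enrichment, from inverse-variance-weighted replicate averages.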
row,Variant,polymerase ribozyme fitness (log ratio)
1,A47U C95U A115G,-2.68
2,A47U G80C G94C A110G,≤ -4.2
3,G48A U77C C85U C93U C105U U145C,≤ -4.2
4,A47U G50C G126A,≤ -4.2
5,G48C A60C G86A G92U A138C G152A,≤ -4.2
6,G48A A113G A147G G152C,≤ -4.2
7,G48C A115G G133A,-3.85
8,A47U G74U A97G U111G U148A,≤ -4.2
9,G48A C103A,-1.74
10,A47G C85U G136C G152U,≤ -4.2
11,A47G A64U C76U G83U A119U C129G G136U,≤ -4.2
12,G48C A89G A115G G141U,≤ -4.2
13,G48U A49C U61C U78G C108G A115C,≤ -4.2
14,G48C U111A G140U,≤ -4.2
15,G48A A52C G84U C87U C105A,≤ -4.2
16,A47C U82G A142C,-2.54
17,A47C C96A C123G U151G,≤ -4.2
18,A47U C79A C87U C125G,≤ -4.2
19,A47U G81A C125G A150C,≤ -4.2
20,A47U A89U A110C,≤ -4.2
21,A47G G58C G112C,-3.97
22,A47C G50C G88A C96G G136U A138C,≤ -4.2
23,G48C G59A C85U C129A,-4.08
24,A47C G58C C87A U104C C116U,≤ -4.2

row,Variant,polymerase ribozyme fitness (log ratio)
1,A47C G48A A52C C54U C85U G92C A98C C103G G126U,≤ -4.2
2,A47G U90A C95A A98G A138U A147C,≤ -4.2
3,A47G C87U U101C,0.535
4,G48A A52G C116U,-0.319
5,G48U C93A A107G G126U U144G,≤ -4.2
6,A47U C76U,-0.942
7,A47C C54A C72A C85U C96U C118U G140C C149U,≤ -4.2
8,A47U C51A G58A G80A G83A C103U,≤ -4.2
9,A47C G65C U77A U78G C85U,≤ -4.2
10,A47G C123U C129G,-3.23
11,A47U C57U U61A U101A A107U C125A U145C,≤ -4.2
12,A47C U53G G83A A106U C132A,≤ -4.2
13,G48C U53G,-3.59
14,A47G A52C G83A A138C,≤ -4.2
15,A47G G74A U101G A121C U145C,≤ -4.2
16,G48A G88A C105G A115U,-3.86
17,G48A A52U G86U,≤ -4.2
18,A47C C69U G80C,≤ -4.2
19,A47U G59A C76A C129U,≤ -4.2
20,G48A A60G A98G G143C U151G,≤ -4.2
21,G48C U82G G128C U135A,-3.96
22,A47U A60C C125U,-2.64
23,A47C C76G C93U C125U,≤ -4.2
24,G48C U102G,-2.42

row,Variant,polymerase ribozyme fitness (log ratio)
1,A47U A91U,≤ -4.2
2,A47G G59U C96U U102G G140A,≤ -4.2
3,A47U G68U G74A C87G C99U,≤ -4.2
4,G48U A73G,-1.15
5,A47C U53A U55C C93A,≤ -4.2
6,G48A C76G,≤ -4.2
7,A47C G58C G71U C87U G124U G143A,≤ -4.2
8,G48A C76G U102G,≤ -4.2
9,A47C U55A C57G C79A G81A C87A C105U C149G,≤ -4.2
10,A47C U61G G68A G94C C99G A122C,≤ -4.2
11,G48C A120C,-0.573
12,A47G A49C U77C,≤ -4.2
13,G48A A49C C57A U82G C93U C132U G133U A137U,≤ -4.2
14,G48U C93G G94U G140C,≤ -4.2
15,A47G G80A,-0.0419
16,G48A C57A G84A U101A U135C,≤ -4.2
17,A47U U55G G94A,-0.633
18,G48U A52C C69A C85U U134G A150G,≤ -4.2
19,A47U C51U A52C U53G U61A A64U C76U G83U U146C,≤ -4.2
20,A47G C96U U151A,≤ -4.2
21,A47G G140A,-3.51
22,A47G G74C A122C U127A,≤ -4.2
23,A47U C95U,-0.679
24,G48U A60C U90G G126A,≤ -4.2

row,Variant,polymerase ribozyme fitness (log ratio)
1,G48A G67U A91C C96G C116U G124A,≤ -4.2
2,A47G G92C C114U,-2.53
3,A47C U53C C57A C72G A73C U78C C79U C96G C129A A150G,≤ -4.2
4,A47G U61G A142G,-2.82
5,A47G C114U,-2.4
6,A47C G59A,0.309
7,G48A G71A A91G U102C,≤ -4.2
8,A47C C85U C118U U130A,-3.62
9,G48C C79A G84C C87G G92A C108U G140A U145G,≤ -4.2
10,A47C G83A C118U G133C U148C,≤ -4.2
11,A47U C85U A150C,≤ -4.2
12,G48A G50C U55C G59U U61A G83U G140C,≤ -4.2
13,A47C G58A G67U A89G G92U A97U G124U U130A G143A,≤ -4.2
14,G48C A60U U82A A91C U127A U148C,≤ -4.2
15,A47G C93A C131U U134C,-0.603
16,G48C G141A,-3.64
17,A47G A147U,0.466
18,G48C A52U G58C C118G U134A,≤ -4.2
19,G48C C75U U90G G117A C129G,≤ -4.2
20,G48A C85U C95G C103U G124U C132A G143A,≤ -4.2
21,A47G A52C C54A G92C A97U C125U C149A,≤ -4.2
22,G48A C54U G59C G70C G92U,≤ -4.2
23,A47C G71A A91C C103A C125U C131G,≤ -4.2
24,A47U G58C U61G G81A,-3.65

row,Variant,polymerase ribozyme fitness (log ratio)
1,G48A U90G C93G A98U C116U G136A G143C,≤ -4.2
2,A47G C99A A142U,-2.48
3,G48A U55A C57G A66U G83C U90A C108U G124U,≤ -4.2
4,A47U G59C C85A G92U C123U G140U,≤ -4.2
5,A47U A60C C87A C114U,≤ -4.2
6,G48A C57G G83C C87G U102A G112C A119C,≤ -4.2
7,A47C U77G U130G,≤ -4.2
8,A47G G68A U78C G92A U101C G126A,≤ -4.2
9,G48C G50C G62A A66G C87U A89G G133A,≤ -4.2
10,A47U C103G,≤ -4.2
11,A47G U102G,≤ -4.2
12,G48A A49C G80A C85U,≤ -4.2
13,A47C C76A C99U U127G U135G,≤ -4.2
14,A47G U61G G92C U102G U104G U111G,≤ -4.2
15,G48A U55A G59C C85G,≤ -4.2
16,G48C C54U A64U C76G A98G U146A,≤ -4.2
17,A47C G48C C93U C149U,≤ -4.2
18,A47U A60C C103G A107G,≤ -4.2
19,G48A C96A,-1.51
20,A47U C51U C87U A113U G152A,-3.99
21,G48A A137G C149U,-3.82
22,A47U A52C G68C A91G U111A,≤ -4.2
23,G48A G58C C95U G152C,≤ -4.2
24,A47U C76U A119C U139G,-2.8

row,Variant,polymerase ribozyme fitness (log ratio)
1,A47U C96A G126A C129A A137U,≤ -4.2
2,G48A G65A C87A A89G,≤ -4.2
3,G48C C54A U56G G65A G83U C93A C123G,≤ -4.2
4,A47G G58C C85U C87A A115G A119G A142G,≤ -4.2
5,G48C G84A C116G,≤ -4.2
6,A47C U61A G83C A142C,≤ -4.2
7,A47G G88C A89G A98U G143U,≤ -4.2
8,A47C C103G U135G,≤ -4.2
9,G48C A91U C114U,≤ -4.2
10,G48A G50C,-3.83
11,A47C A122U,-1.45
12,A47C C85G C96U C125U,≤ -4.2
13,A47G U102G C114G C131U,≤ -4.2
14,A47U C54U C69A,≤ -4.2
15,G48A C87A C103U C123A U127A,≤ -4.2
16,G48A U82G C93A G128U,≤ -4.2
17,A47U G50C,-3.22
18,A47C C95U A107G C118U C125U G140C U145G U148G,≤ -4.2
19,G48C A52G U139C U148G,≤ -4.2
20,A47U U56A A122G U127C,-2.55
21,A47G C54A,-1.65
22,G48A C125U,-0.97
23,A47C G59C A73U C93U G100C,≤ -4.2
24,G48A G86U A110U A147U A150U,≤ -4.2

row,Variant,polymerase ribozyme fitness (log ratio)
1,A47C G133U C149A,≤ -4.2
2,A47G U53A C57A G84U C99U U134G G141C,≤ -4.2
3,G48U C69G C87A A91U C125U,≤ -4.2
4,A47G C57G G83A C95A G152A,≤ -4.2
5,G48A,-0.217
6,G48U,0.247
7,G48C,0.0216
8,A47C C85G C93A C99A A120U U127G,≤ -4.2
9,G48C G94A,-0.224
10,A47C C57A C105A G126A,-3.51
11,G48A C103G C105G,≤ -4.2
12,G48U C54A U82G C93A A98G A106G C108G,≤ -4.2
13,G48C G74U C75A A122U G141A,≤ -4.2
14,G48C U145G,-0.0374
15,A47C C75G U77A G88A A106U,≤ -4.2
16,A47U C93G,-3.23
17,A47C U61C A66G G83C G86U C132G G143C,≤ -4.2
18,A47U C87U A91U C95U C114G A120C,≤ -4.2
19,A47G G48A U82A G84A A98U C114U A137C,≤ -4.2
20,G48A C57A,0.284
21,G48C C79A U102G G128U,≤ -4.2
22,G48C G50U U53A A91G C95U G117U,≤ -4.2
23,G48C A66G C114G G152C,≤ -4.2
